Measurements reported in the supplement of paper PMC4967469.
IC50 is the fitted dose that halves viability relative to control wells, and lower means more sensitive; where the fit passes the top or lowest dose, that dose stands as a limit. AUC sums up the same curve from the lowest dose to the 256-fold higher top dose; it is 1 without any effect and falls as sensitivity rises. For part of these data: A top dose marked as inferred is not printed in the source and was worked back from the curve model.

What was measured:
Assay in all cases: Viability of human cancer cell lines after 72 h of drug (GDSC screen)
Mitomycin C = compound: CO[C@@]12[C@H](COC(N)=O)C3=C(C(=O)C(C)=C(N)C3=O)N1C[C@@H]1N[C@@H]12 [Mitomycin C]; conditions: top dose 16 µM
Description: (§1)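 Human cancer cell lines in 384-well plates, medium with 10% serum, drug for 72 h over a 256-fold dose range (nine 2-fold or five 4-fold steps up to the top dose). Adherent lines were fixed and stained with the nucleic acid dye Syto60, suspension lines read with resazurin; signal relative to control wells, capped at 0 and 100%. One two-parameter sigmoid per drug and line, fitted in a mixed model over all curves with the slope shared within a line.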

NVP-BHG712 = compound: Cc1ccc(C(=O)Nc2cccc(C(F)(F)F)c2)cc1Nc1nc(-c2cccnc2)nc2c1cnn2C [NVP-BHG712]; conditions: top dose 10.24 µM; top dose inferred
Description: as §1

IOX2 = compound: O=C(O)CNC(=O)c1c(O)c2ccccc2n(Cc2ccccc2)c1=O [IOX2]; conditions: top dose 0.1 µM; top dose inferred
Description: as §1

Bosutinib = compound: COc1cc(Nc2c(C#N)cnc3cc(OCCCN4CCN(C)CC4)c(OC)cc23)c(Cl)cc1Cl [Bosutinib]; conditions: top dose 2 µM
Description: as §1

Roscovitine = compound: CC[C@H](CO)Nc1nc(NCc2ccccc2)c2ncn(C(C)C)c2n1 [Roscovitine]; conditions: top dose 16 µM; top dose inferred
Description: as §1

Midostaurin = compound: CO[C@@H]1[C@H](N(C)C(=O)c2ccccc2)C[C@H]2O[C@]1(C)n1c3ccccc3c3c4c(c5c6ccccc6n2c5c31)C(=O)NC4 [Midostaurin]; conditions: top dose 0.512 µM; top dose inferred
Description: as §1

Cell Line	AUC (Mitomycin C)	IC50 (Mitomycin C) [µM]	AUC (NVP-BHG712)	IC50 (NVP-BHG712) [µM]	AUC (IOX2)	IC50 (IOX2) [µM]	AUC (Bosutinib)	IC50 (Bosutinib) [µM]	AUC (Roscovitine)	IC50 (Roscovitine) [µM]	AUC (Midostaurin)	IC50 (Midostaurin) [µM]
COLO-800 (melanoma, adherent)	0.174	0.108	0.965	> 10.2	0.982	> 0.1	0.963	> 2	0.985	> 16	0.953	> 0.512
U-87-MG (glioma, adherent)	0.543	1.34	0.955	> 10.2	0.98	> 0.1	0.965	> 2	0.971	> 16	0.941	> 0.512
HUTU-80 (digestive system, adherent)	0.045	< 0.0625	0.87	6.9	0.977	> 0.1	0.962	> 2	0.972	> 16	0.727	0.123
DU-4475 (breast, suspension)	0.069	< 0.0625	0.476	0.559	0.992	> 0.1	0.975	> 2	0.955	> 16	0.893	0.41
DG-75 (Burkitt lymphoma, suspension)	0.759	5.65	0.945	> 10.2	0.985	> 0.1	0.827	1.25	0.943	> 16	0.984	> 0.512
HCC1187 (breast, suspension)	0.672	2.93	0.898	> 10.2	0.988	> 0.1	0.959	> 2	0.96	> 16	0.928	> 0.512
GR-ST (lymphoblastic leukaemia, suspension)	0.301	0.243	0.869	> 10.2	0.969	> 0.1	0.973	> 2	0.979	> 16	0.916	> 0.512
ALL-PO (lymphoblastic leukaemia, suspension)	0.125	< 0.0625	0.759	3.76	0.982	> 0.1	0.859	1.81	0.942	> 16	0.732	0.154
L-428 (Hodgkin lymphoma, suspension)	0.544	1.3	0.993	> 10.2	0.987	> 0.1	0.954	> 2	0.984	> 16	0.972	> 0.512
NB6 (neuroblastoma, adherent)	0.588	1.84	0.946	> 10.2	0.93	> 0.1	0.957	> 2	0.984	> 16	0.918	> 0.512
P31-FUJ (acute myeloid leukaemia, suspension)	0.714	3.38	0.995	> 10.2	0.996	> 0.1	0.989	> 2	0.996	> 16	0.996	> 0.512
SU-DHL-4 (B-cell lymphoma, suspension)	0.599	1.73	0.834	4.22	0.997	> 0.1	0.975	> 2	0.917	11.6	0.996	> 0.512
DSH1 (bladder, adherent)	0.182	0.117	0.989	> 10.2	0.988	> 0.1	0.914	> 2	0.961	> 16	0.901	> 0.512
ONS-76 (medulloblastoma, adherent)	0.336	0.337	0.906	> 10.2	0.983	> 0.1	0.806	1.11	0.961	> 16	0.812	0.302
MSTO-211H (mesothelioma, adherent)	0.658	2.62	0.991	> 10.2	0.951	> 0.1	0.855	1.36	0.989	> 16	0.991	> 0.512
NB69 (neuroblastoma, adherent)	0.234	0.189	0.779	3.69	0.948	> 0.1	0.989	> 2	0.989	> 16	0.693	0.104
TE-15 (oesophagus, suspension)	0.176	0.0895	0.947	> 10.2	0.982	> 0.1	0.819	1.33	0.982	> 16	0.853	0.485
NCI-H1648 (lung adenocarcinoma, adherent)	0.362	0.406	0.871	> 10.2	0.984	> 0.1	0.94	> 2	0.943	> 16	0.879	> 0.512
LAMA-84 (chronic myeloid leukaemia, suspension)	0.436	0.667	0.069	< 0.04	0.985	> 0.1	0.574	0.2	0.985	> 16	0.949	> 0.512
EoL-1-cell (haematopoietic neoplasm, suspension)	0.195	0.143	0.019	< 0.04	0.987	> 0.1	0.848	1.23	0.988	> 16	0.569	0.0483
VA-ES-BJ (soft tissue, adherent)	0.194	0.115	0.946	> 10.2	0.969	> 0.1	0.931	> 2	0.905	> 16	0.805	0.277
